The results in this text go back to the supplement of paper PMC7125110.

Variants at the background level are over-represented here. Some results are limits rather than exact numbers.

The chains are these.
B1: glmS ribozyme (parent)
chain: AUAAAAGCGCCAGAACUACAGAAAUGUAGUUGACGAGGAGGAGGUUUAUCGAAUUUUCGGCGGAUGCCUCCAAA

Conditions in all cases: with glucosamine-6-phosphate
Data set [1] covers variants of B1. Put plainly: self-cleavage kobs at 640 uM GlcN6P; higher = faster cleavage; RNA array. The method in brief:
(§1)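 A hybridised Cy3 probe tracked barcoded ribozyme variants, transcribed in situ by E. coli RNA polymerase on sequenced MiSeq chips, at 37 °C. The variants received 40 μM to 10 mM glucosamine-6-phosphate in HEPES/KCl/Mg(OAc)2 buffer. kobs came from decay fits and kcat and KM from weighted Michaelis–Menten fits.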

Data set [2] covers variants of B1. As to the kind of experiment: self-cleavage kobs at 2500 uM GlcN6P; higher = faster cleavage; RNA array. The essentials: as §1
Data set [3] covers variants of B1. As to the kind of experiment: self-cleavage kobs at 160 uM GlcN6P; higher = faster cleavage; RNA array. The method in brief:
as §1

Variants of B1 are the subject of data set [4]. As to the kind of experiment: self-cleavage kobs at 10000 uM GlcN6P; higher = faster cleavage; RNA array. The essentials:
as §1

In data set [5] the parent is B1. As to the kind of experiment: self-cleavage kobs at 40 uM GlcN6P; higher = faster cleavage; RNA array. The method in brief: as §1

With G7C C34U A42U U54C, the “self-cleavage kobs at 640 uM GlcN6P” value in the data set with glucosamine-6-phosphate [1] is less than 1e-05 s⁻¹. In the data set with glucosamine-6-phosphate [2], the “self-cleavage kobs at 2500 uM GlcN6P” value was less than 1e-05 s⁻¹.

For A6U G35A G38U U65G, the “self-cleavage kobs at 640 uM GlcN6P” value in the data set with glucosamine-6-phosphate [1] is less than 1e-05 s⁻¹. For the same variant, the “self-cleavage kobs at 2500 uM GlcN6P” value with glucosamine-6-phosphate [2] is less than 1e-05 s⁻¹.

For C8A C67A U69C, the “self-cleavage kobs at 640 uM GlcN6P” value in the data set with glucosamine-6-phosphate [1] is less than 1e-05 s⁻¹. Further, in the data set with glucosamine-6-phosphate [3], the “self-cleavage kobs at 160 uM GlcN6P” value is less than 1e-05 s⁻¹. The “self-cleavage kobs at 10000 uM GlcN6P” value with glucosamine-6-phosphate [4] was less than 1e-05 s⁻¹.

With A6U A33C G43A, the “self-cleavage kobs at 640 uM GlcN6P” value in the data set with glucosamine-6-phosphate [1] is less than 1e-05 s⁻¹. Also, in the data set with glucosamine-6-phosphate [2], the “self-cleavage kobs at 2500 uM GlcN6P” value is less than 1e-05 s⁻¹.

For the variant C8A G9C, in the data set with glucosamine-6-phosphate [1], the “self-cleavage kobs at 640 uM GlcN6P” value was less than 1e-05 s⁻¹. For the same variant, the “self-cleavage kobs at 160 uM GlcN6P” value with glucosamine-6-phosphate [3] is less than 1e-05 s⁻¹. In addition, in the data set with glucosamine-6-phosphate [2], the “self-cleavage kobs at 2500 uM GlcN6P” value was less than 1e-05 s⁻¹. The “self-cleavage kobs at 10000 uM GlcN6P” value with glucosamine-6-phosphate [4] is less than 1e-05 s⁻¹.

Take G7A C50A G51A: the “self-cleavage kobs at 640 uM GlcN6P” value in the data set with glucosamine-6-phosphate [1] was less than 1e-05 s⁻¹. The “self-cleavage kobs at 160 uM GlcN6P” value with glucosamine-6-phosphate [3] is less than 1e-05 s⁻¹. The “self-cleavage kobs at 2500 uM GlcN6P” value with glucosamine-6-phosphate [2] is less than 1e-05 s⁻¹.

Consider U57A G60U, for which the “self-cleavage kobs at 40 uM GlcN6P” value with glucosamine-6-phosphate [5] was less than 1e-05 s⁻¹. For the same variant, the “self-cleavage kobs at 640 uM GlcN6P” value with glucosamine-6-phosphate [1] is less than 1e-05 s⁻¹. In addition, the “self-cleavage kobs at 160 uM GlcN6P” value with glucosamine-6-phosphate [3] was less than 1e-05 s⁻¹. Moreover, the “self-cleavage kobs at 10000 uM GlcN6P” value with glucosamine-6-phosphate [4] was less than 1e-05 s⁻¹.

Regarding U57A G60C, the “self-cleavage kobs at 40 uM GlcN6P” value with glucosamine-6-phosphate [5] was less than 1e-05 s⁻¹. Further, the “self-cleavage kobs at 640 uM GlcN6P” value with glucosamine-6-phosphate [1] was less than 1e-05 s⁻¹. In the data set with glucosamine-6-phosphate [4], the “self-cleavage kobs at 10000 uM GlcN6P” value is less than 1e-05 s⁻¹.

As to G7U A42G G43A G44U, the “self-cleavage kobs at 640 uM GlcN6P” value in the data set with glucosamine-6-phosphate [1] was less than 1e-05 s⁻¹. Further, in the data set with glucosamine-6-phosphate [3], the “self-cleavage kobs at 160 uM GlcN6P” value is less than 1e-05 s⁻¹.

Consider A6C C8A A12C C50A, for which the “self-cleavage kobs at 640 uM GlcN6P” value with glucosamine-6-phosphate [1] is less than 1e-05 s⁻¹.

Turning to A6U A12U A52C U65C, in the data set with glucosamine-6-phosphate [1], the “self-cleavage kobs at 640 uM GlcN6P” value was less than 1e-05 s⁻¹. In the data set with glucosamine-6-phosphate [3], the “self-cleavage kobs at 160 uM GlcN6P” value was less than 1e-05 s⁻¹. Further, in the data set with glucosamine-6-phosphate [2], the “self-cleavage kobs at 2500 uM GlcN6P” value was less than 1e-05 s⁻¹.

Regarding G7C C71A, the “self-cleavage kobs at 640 uM GlcN6P” value with glucosamine-6-phosphate [1] is less than 1e-05 s⁻¹. In addition, in the data set with glucosamine-6-phosphate [4], the “self-cleavage kobs at 10000 uM GlcN6P” value was less than 1e-05 s⁻¹.

Take A6G G29U A36C: the “self-cleavage kobs at 640 uM GlcN6P” value in the data set with glucosamine-6-phosphate [1] is less than 1e-05 s⁻¹.

For the variant G63A C67A, the “self-cleavage kobs at 40 uM GlcN6P” value in the data set with glucosamine-6-phosphate [5] is less than 1e-05 s⁻¹. Moreover, in the data set with glucosamine-6-phosphate [1], the “self-cleavage kobs at 640 uM GlcN6P” value was less than 1e-05 s⁻¹. Also, in the data set with glucosamine-6-phosphate [4], the “self-cleavage kobs at 10000 uM GlcN6P” value is less than 1e-05 s⁻¹.

As for C8A C16G C50U A52C, the “self-cleavage kobs at 640 uM GlcN6P” value with glucosamine-6-phosphate [1] is less than 1e-05 s⁻¹. Further, the “self-cleavage kobs at 160 uM GlcN6P” value with glucosamine-6-phosphate [3] was less than 1e-05 s⁻¹.

On to A6C U45C G51C U65G C70G, for which the “self-cleavage kobs at 640 uM GlcN6P” value in the data set with glucosamine-6-phosphate [1] was less than 1e-05 s⁻¹. In the data set with glucosamine-6-phosphate [2], the “self-cleavage kobs at 2500 uM GlcN6P” value was less than 1e-05 s⁻¹.

As to G7A U65G, in the data set with glucosamine-6-phosphate [1], the “self-cleavage kobs at 640 uM GlcN6P” value was less than 1e-05 s⁻¹. The “self-cleavage kobs at 160 uM GlcN6P” value in the data set with glucosamine-6-phosphate [3] is less than 1e-05 s⁻¹. The “self-cleavage kobs at 2500 uM GlcN6P” value with glucosamine-6-phosphate [2] was less than 1e-05 s⁻¹. Besides, in the data set with glucosamine-6-phosphate [4], the “self-cleavage kobs at 10000 uM GlcN6P” value was less than 1e-05 s⁻¹.

On to G60C C67A C71U, for which the “self-cleavage kobs at 40 uM GlcN6P” value with glucosamine-6-phosphate [5] is less than 1e-05 s⁻¹.

With C61A C70U, in the data set with glucosamine-6-phosphate [5], the “self-cleavage kobs at 40 uM GlcN6P” value was less than 1e-05 s⁻¹.

As to G7C G13A G44C, in the data set with glucosamine-6-phosphate [1], the “self-cleavage kobs at 640 uM GlcN6P” value is less than 1e-05 s⁻¹. Moreover, the “self-cleavage kobs at 2500 uM GlcN6P” value in the data set with glucosamine-6-phosphate [2] was less than 1e-05 s⁻¹.

G7C C8U C16U G38A C67G: the “self-cleavage kobs at 640 uM GlcN6P” value in the data set with glucosamine-6-phosphate [1] is less than 1e-05 s⁻¹. Also, the “self-cleavage kobs at 160 uM GlcN6P” value in the data set with glucosamine-6-phosphate [3] was less than 1e-05 s⁻¹.

Regarding A6U G51U A52G C61A, the “self-cleavage kobs at 640 uM GlcN6P” value in the data set with glucosamine-6-phosphate [1] is less than 1e-05 s⁻¹. In addition, the “self-cleavage kobs at 2500 uM GlcN6P” value with glucosamine-6-phosphate [2] was less than 1e-05 s⁻¹.

For C67G U69A, in the data set with glucosamine-6-phosphate [5], the “self-cleavage kobs at 40 uM GlcN6P” value was less than 1e-05 s⁻¹. The “self-cleavage kobs at 160 uM GlcN6P” value with glucosamine-6-phosphate [3] is less than 1e-05 s⁻¹.

Consider G62A U69A, for which the “self-cleavage kobs at 40 uM GlcN6P” value with glucosamine-6-phosphate [5] was less than 1e-05 s⁻¹.

Regarding G7A A42U C71A, the “self-cleavage kobs at 640 uM GlcN6P” value with glucosamine-6-phosphate [1] is less than 1e-05 s⁻¹. For the same variant, the “self-cleavage kobs at 2500 uM GlcN6P” value in the data set with glucosamine-6-phosphate [2] is less than 1e-05 s⁻¹.

Regarding C8G G35A G44C, in the data set with glucosamine-6-phosphate [1], the “self-cleavage kobs at 640 uM GlcN6P” value was less than 1e-05 s⁻¹. Besides, the “self-cleavage kobs at 10000 uM GlcN6P” value with glucosamine-6-phosphate [4] is less than 1e-05 s⁻¹.
